Assay results from the supplement of paper PMC7125110.
± gives the standard error. Variants at the floor of the assay are shown more often than the library holds them.

B1: glmS ribozyme (parent)
chain: AUAAAAGCGCCAGAACUACAGAAAUGUAGUUGACGAGGAGGAGGUUUAUCGAAUUUUCGGCGGAUGCCUCCAAA

Experiments:
Conditions in all cases: with glucosamine-6-phosphate
glucosamine-6-phosphate [1] = variants of: B1; assay: self-cleavage kobs at 160 uM GlcN6P; higher = faster cleavage; RNA array
Procedure, shortened: (§1)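 Tiles of sequenced MiSeq chips were imaged over ~14 h at 37 °C. On them, barcoded ribozyme variants had been transcribed in situ by E. coli RNA polymerase and were tracked via a hybridised Cy3 probe while glucosamine-6-phosphate (40 μM to 10 mM) in HEPES/KCl/Mg(OAc)2 buffer flowed in. Per-tile medians, normalised to baseline and to non-cleaving reference variants, were fit to one- or two-exponential decays for kobs, and weighted Michaelis–Menten fits gave kcat and KM.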

glucosamine-6-phosphate [2] = variants of: B1; assay: self-cleavage kobs at 640 uM GlcN6P; higher = faster cleavage; RNA array
Procedure, shortened: as §1

glucosamine-6-phosphate [3] = variants of: B1; assay: self-cleavage kobs at 2500 uM GlcN6P; higher = faster cleavage; RNA array
Procedure, shortened: as §1

glucosamine-6-phosphate [4] = variants of: B1; assay: self-cleavage kobs at 10000 uM GlcN6P; higher = faster cleavage; RNA array
Procedure, shortened: as §1

| Variant | self-cleavage kobs at 160 uM GlcN6P (glucosamine-6-phosphate [1]) [s⁻¹] | self-cleavage kobs at 640 uM GlcN6P (glucosamine-6-phosphate [2]) [s⁻¹] | self-cleavage kobs at 2500 uM GlcN6P (glucosamine-6-phosphate [3]) [s⁻¹] | self-cleavage kobs at 10000 uM GlcN6P (glucosamine-6-phosphate [4]) [s⁻¹] |
| --- | --- | --- | --- | --- |
| A6U G38U U47G | < 1e-05 | – | – | – |
| G44C U56A C61U | < 1e-05 | < 1e-05 | – | – |
| A48C G59C C71U | < 1e-05 | < 1e-05 | – | – |
| C8U A33G A64U | – | – | < 1e-05 | – |
| U2C C61G | – | – | < 1e-05 | – |
| A42G G51A G59C | – | < 1e-05 | – | – |
| C10G A64G U65G | – | – | < 1e-05 | – |
| C8U C11G C34G G51U U55A A64G | – | – | < 1e-05 | – |
| G44U A52C C70G | – | < 1e-05 | – | – |
| G7U G41C C61U | – | – | < 1e-05 | – |
| G32C G38U G43A C67A | < 1e-05 | – | < 1e-05 | – |
| G40A A42U U49C C58G A64G C70G | < 1e-05 | < 1e-05 | < 1e-05 | – |
| C58G G66U | < 1e-05 | – | – | – |
| A6G U54A C61A | – | – | < 1e-05 | – |
| A6G G9U G32C G40U U45A U47G U69C | < 1e-05 | – | – | – |
| U30A G37U A48U C58A G66U | < 1e-05 | – | < 1e-05 | – |
| G7A C16A A39U G40A | – | – | < 1e-05 | – |
| G7A A33G | – | – | < 1e-05 | – |
| U55C C61U C68G | < 1e-05 | < 1e-05 | < 1e-05 | – |
| U31A A42U C50G | < 1e-05 | – | < 1e-05 | – |
| A42U C50U G51C | – | < 1e-05 | < 1e-05 | – |

| Variant | self-cleavage kobs at 160 uM GlcN6P (glucosamine-6-phosphate [1]) [s⁻¹] | self-cleavage kobs at 640 uM GlcN6P (glucosamine-6-phosphate [2]) [s⁻¹] | self-cleavage kobs at 2500 uM GlcN6P (glucosamine-6-phosphate [3]) [s⁻¹] | self-cleavage kobs at 10000 uM GlcN6P (glucosamine-6-phosphate [4]) [s⁻¹] |
| --- | --- | --- | --- | --- |
| A14U A15C A48C U56A C67A | < 1e-05 | – | – | – |
| U46G G51A A64U | – | < 1e-05 | < 1e-05 | – |
| G7C G41U G43C | < 1e-05 | – | < 1e-05 | – |
| G7A C68G | < 1e-05 | – | – | – |
| G43C U45C A48U | < 1e-05 | – | < 1e-05 | – |
| A6C G35A U49C | – | – | < 1e-05 | – |
| A6U A36C U55G | – | – | < 1e-05 | – |
| G9A U30G C58G A64G | – | – | < 1e-05 | – |
| C10U G37U U57A | < 1e-05 | – | < 1e-05 | – |
| G40U C58U G66U | < 1e-05 | < 1e-05 | < 1e-05 | – |
| C8A G66A | – | – | < 1e-05 | < 1e-05 |
| U46A C50A | – | < 1e-05 | < 1e-05 | – |
| A6U C50U | – | – | < 1e-05 | – |
| G9U C11G C70U | – | – | < 1e-05 | – |
| G38A U46A U47G A52G C61A | < 1e-05 | – | – | – |
| A6U G32U G40U A42C U65G | < 1e-05 | – | < 1e-05 | – |
| U46A G60C G63A | < 1e-05 | – | < 1e-05 | – |
| G40A G41U A52G | < 1e-05 | – | – | – |
| G51U A52U | < 1e-05 | < 1e-05 | < 1e-05 | – |
| U49C A52G | – | < 1e-05 | < 1e-05 | < 1e-05 |
| G7U C61U C71U | – | – | < 1e-05 | – |

| Variant | self-cleavage kobs at 160 uM GlcN6P (glucosamine-6-phosphate [1]) [s⁻¹] | self-cleavage kobs at 640 uM GlcN6P (glucosamine-6-phosphate [2]) [s⁻¹] | self-cleavage kobs at 2500 uM GlcN6P (glucosamine-6-phosphate [3]) [s⁻¹] | self-cleavage kobs at 10000 uM GlcN6P (glucosamine-6-phosphate [4]) [s⁻¹] |
| --- | --- | --- | --- | --- |
| G51A C61U | < 1e-05 | < 1e-05 | – | < 1e-05 |
| C34A G44U A53C U55G | < 1e-05 | – | – | – |
| A36C U55C C67U | < 1e-05 | – | < 1e-05 | < 1e-05 |
| G7U C34U G60U A64G | – | – | < 1e-05 | < 1e-05 |
| A42C U49C | < 1e-05 | < 1e-05 | < 1e-05 | – |
| U46A U54G C70G | 6.23e-05 ± 2e-05 | 0.000291 ± 6.7e-05 | 0.000305 ± 6.4e-05 | 0.000127 ± 2.9e-05 |
| G9U G43A A53U U65A U69A | – | – | < 1e-05 | – |
| G9U A14G C61A A64G C70G | – | – | 6.76e-05 ± 2.1e-05 | – |
| G43C C61U U65G | < 1e-05 | – | – | – |
| U49C C58A | – | < 1e-05 | – | < 1e-05 |
| C50U A52G C70A | 5.11e-05 ± 2.3e-05 | 0.000125 ± 3.7e-05 | 6.9e-05 ± 2.3e-05 | – |
| A6U G38U U45C G63U | – | – | < 1e-05 | – |
| A42G U55A A64C | – | < 1e-05 | – | – |
| A6U U31A | – | – | 8.83e-05 ± 2.1e-05 | 9.85e-05 ± 2.2e-05 |
| C8G G13C A14C U49A A52C C67G C70U | – | – | < 1e-05 | – |
| C10G C34G C61U | – | – | < 1e-05 | – |
| U30A A39G A48G C61U | < 1e-05 | – | < 1e-05 | – |
| A33G U47G A48G | < 1e-05 | – | – | – |
| G37U A48C | < 1e-05 | – | – | < 1e-05 |
| G35C G38C | < 1e-05 | – | < 1e-05 | – |
| A15G A39U A64U | < 1e-05 | – | – | – |
